Results from article PMC11431137, “[^68Ga]Ga-DOTAGA-Glu(FAPi)2 Shows Enhanced Tumor Uptake and Theranostic Potential in Preclinical PET Imaging” (Diagnostics, 2024).
“And” between values parts separate entries of the source, which are not always exact repeats. Equal entries are not always repeated. Further values from the same series stand in other lists.

System: endogenously FAP-expressing xenografted mouse model, U87MG
Experiment: In vivo PET/CT imaging, organ distribution in U87MG xenografted mice
Description: Six-week-old female NMRI nude mice were purchased (Janvier, Le Genest-Saint-Isle, France) and housed in groups of 4–8 mice in individually ventilated cages under regular lighting conditions. They were fed a standard pathogen-free pellet diet and provided water ad libitum. All animal experiments were approved by The Animal Experiments Inspectorate in Denmark (2021-15-0201-01041). The animals were acclimatized for two weeks before study initiation.
To establish a tumor model, the mice were subcutaneously inoculated on the right flank with a human xenograft glioblastoma U87MG (HTB-14, ATCC, Manassas, VA, USA). These cells were cultivated in Dulbecco’s modified Eagle’s medium (DMEM) supplemented with fetal bovine serum (FBS) and penicillin–streptomycin (Pen/Strep). Tumor growth was monitored two times weekly using calipers.
After adequate tumor establishment, the animals were injected intravenously in the tail vein with 4.49 ± 0.04 MBq [^68Ga]Ga-DOTAGA-Glu(FAPi)2 in a 100 μL phosphate buffer (0.1 M, pH 7) with 1% ethanol (v/v). PET/CT imaging (Inveon, Siemens Healthineers, Knoxville, TN, USA) was performed immediately after injection, and PET data were acquired for 3000 s. The imaging protocol included a dynamic framing setup, with five consecutive frames of 600 s each, resulting in average time intervals of 0–10, 10–20, 20–30, 30–40, and 40–50 min post-injection. During imaging, body temperature was maintained using a heated platform.
PET images were reconstructed using the 3D-OSEM/SP-MAP algorithm, and attenuation correction was performed using the co-registered CT images. The activity concentration was decay-corrected to the time of injection and quantified using Inveon Research Workplace (IRW). Regions of interest were manually drawn on CT images to delineate organs and derive volume and activity. Subsequently, the percentage of injected dose per gram (% ID/g) was calculated for tumor, blood, liver, kidney, and muscle tissues for each frame.
All graphical representations of the data were generated using Prism version 10.1.0 (1994–2023, GraphPad Software, LLC, Boston, MA, USA). The results were expressed as the mean ± standard error of the mean (SEM).

[1] = 5 min post-injection, Mean±SEM, n = 4 mice
[2] = 5 min post-injection, individual mice M1-M4
[3] = 15 min post-injection, Mean±SEM, n = 4 mice
[4] = 15 min post-injection, individual mice M1-M4
[5] = 25 min post-injection, Mean±SEM, n = 4 mice
[6] = 25 min post-injection, individual mice M1-M4
[7] = 35 min post-injection, Mean±SEM, n = 4 mice
[8] = 35 min post-injection, individual mice M1-M4
[9] = 45 min post-injection, Mean±SEM, n = 4 mice
[10] = 45 min post-injection, Mean±SEM, n = 4 mice, listed as [^68Ga]Ga-DOTAGA-Glu-(FAPi)2
[11] = 45 min post-injection, individual mice M1-M4

Compound: N#C[C@@H]1CC(F)(F)CN1C(=O)CNC(=O)c1ccnc2ccc(OCCCCNC(=O)CC[C@H](NC(=O)CCC(C(=O)O)N3CCN(CC(=O)[O-])CCN(CC(=O)[O-])CCN(CC(=O)[O-])CC3)C(=O)NCCCCOc3ccc4nccc(C(=O)NCC(=O)N5CC(F)(F)C[C@H]5C#N)c4c3)cc12.[68Ga+3] (stereo partly drawn) [[^68Ga]Ga-DOTAGA-Glu(FAPi)2]
- Organ distribution, blood [1]: 5.51±0.37 %ID/g
- Organ distribution, muscle [1]: 0.71±0.12 %ID/g
- Organ distribution, blood [2]: 5.59 %ID/g and 6.02 %ID/g and 4.44 %ID/g
- Organ distribution, muscle [2]: 1.00 %ID/g and 0.74 %ID/g and 0.65 %ID/g and 0.43 %ID/g
- Organ distribution, tumor [2]: 2.48 %ID/g
- Organ distribution, blood [3]: 4.67±0.22 %ID/g
- Organ distribution, muscle [3]: 1.17±0.07 %ID/g
- Organ distribution, blood [4]: 4.69 %ID/g and 4.95 %ID/g and 5.00 %ID/g
- Organ distribution, muscle [4]: 1.34 %ID/g and 1.20 %ID/g and 1.11 %ID/g and 1.02 %ID/g
- Organ distribution, tumor [4]: 3.94 %ID/g
- Organ distribution, blood [5]: 4.08±0.21 %ID/g
- Organ distribution, muscle [5]: 1.22±0.03 %ID/g
- Organ distribution, blood [6]: 4.16 %ID/g and 3.86 %ID/g and 4.62 %ID/g
- Organ distribution, muscle [6]: 1.29 %ID/g and 1.25 %ID/g and 1.16 %ID/g (2×)
- Organ distribution, tumor [6]: 4.20 %ID/g
- Organ distribution, blood [7]: 3.67±0.21 %ID/g
- Organ distribution, muscle [7]: 1.24±0.07 %ID/g
- Organ distribution, blood [8]: 3.90 %ID/g and 3.21 %ID/g and 4.13 %ID/g
- Organ distribution, muscle [8]: 1.28 %ID/g and 1.37 %ID/g and 1.24 %ID/g and 1.06 %ID/g
- Organ distribution, tumor [8]: 4.34 %ID/g
- Organ distribution, blood [9]: 3.5 ± 0.2 %ID/g
- Organ distribution, muscle [9]: 1.2 ± 0.1 %ID/g
- Organ distribution, tumor [9]: 4.7 ± 0.5 %ID/g
- Organ distribution, kidney [10]: 2.2 ± 0.2 %ID/g
- Organ distribution, liver [10]: 2.7 ± 0.1 %ID/g
- Organ distribution, blood [11]: 3.39 %ID/g and 3.70 %ID/g and 2.92 %ID/g and 3.99 %ID/g
- Organ distribution, muscle [11]: 1.33 %ID/g and 1.29 %ID/g and 1.18 %ID/g and 1.01 %ID/g
